PubChem BioAssay (NCI)
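Five concentrations, 48 hours, 96-well plates. TGI marks complete inhibition of growth.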 Certain results were filed several times, with different values. The other results are left out here. The source may hold further records. For some assays here: A record mostly stands for its own series of concentrations, not given here; some values may only mark the edge of a range. For some assays here: The values listed for one entry repeat one measurement in other runs, samples, wells, individuals or studies. Brackets tell where a record comes from. Letters count within one entry.

Legend:
Assay in all cases: NCI tumour cell line growth inhibition, 48 h
K-562 leukemia = tested on: K-562 leukemia
U251 CNS = tested on: U251 CNS
TK-10 renal = tested on: TK-10 renal
UACC-62 melanoma = tested on: UACC-62 melanoma
HT29 colon = tested on: HT29 colon
IGROV1 ovarian = tested on: IGROV1 ovarian
DU-145 prostate = tested on: DU-145 prostate
OVCAR-4 ovarian = tested on: OVCAR-4 ovarian
M14 melanoma = tested on: M14 melanoma
SF-268 CNS = tested on: SF-268 CNS

Row | Compound | TGI (K-562 leukemia) | TGI (U251 CNS) | TGI (TK-10 renal) | TGI (UACC-62 melanoma) | TGI (HT29 colon) | TGI (IGROV1 ovarian) | TGI (DU-145 prostate) | TGI (OVCAR-4 ovarian) | TGI (M14 melanoma) | TGI (SF-268 CNS)
1 | CC[C@]12C=CCN3CC[C@]4(C(=C(C(=O)OC)C1)Nc1cc5c(cc14)[C@@H]1[C@H](O5)[C@@H](O)[C@@]4(CC)CC(C(=O)OC)=C5Nc6ccccc6[C@@]56CCN1[C@@H]46)[C@@H]32 | 6.3 µM and > 100 µM | 5.71 µM and > 100 µM | 4.15 µM and 42.9 µM | 25 µM and 2.35 µM | 5.53 µM and > 100 µM |  |  |  |  | 
2 | CN1C(=O)C(N=Nc2ccc([N+](=O)[O-])cc2)SC1=S (stereo unspecified) |  |  |  |  |  | > 100 µM [sample A, 1 test] and 7.59 µM [sample B, 1 test] |  |  |  | 
3 | Cc1ccc(C(=O)NC2C(=O)NC(C(C)C)C(=O)N3CCCC3C(=O)N(C)CC(=O)N(C)C(C(C)C)C(=O)OC2C)c2c1Oc1c(c(C(=O)NC3C(=O)NC(C(C)C)C(=O)N4CCCC4C(=O)N(C)CC(=O)N(C)C(C(C)C)C(=O)OC3C)c3nc(-c4ccccc4)c(=O)oc3c1C)N2 (stereo unspecified) |  | 3.01 nM and 2.24 µM |  |  |  |  | 37 nM and 372 nM | 1.16 µM and 40.6 nM | 220 nM and 16.7 nM | 8.93 nM and 187 nM
